This passage reports relative growth results from the supplement of paper PMC9446081.

SMILES strings stand for the structures. Hit rate of the full screen: of about 39,000 compounds, about 220 (0.56%) showed activity. The list shows a part of the results.
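Also: static incubation at 37 °C against the wild-type strain, values averaged over two biological replicates.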

This assay deals with Escherichia coli K-12 BW25113. Nature of the assay: relative growth (OD600 normalised to plate interquartile mean) (fraction); higher = less growth inhibition, active = 0.2 or less. Conditions: 50 µM; LB; incubation time: overnight (16-24 h).
Turning to `C[C@H](CO)N1C[C@H](C)[C@H](CN(C)Cc2ccc(F)cc2)Oc2cc(C#CC(C)(C)O)ccc2S1(=O)=O`, the relative growth is inactive: 0.93.

Take `COc1ccc(NC(=O)Nc2ccc3c(c2)C(=O)N([C@H](C)CO)C[C@@H](C)[C@H](CN(C)Cc2ccc4c(c2)OCO4)OCCCC[C@H](C)O3)cc1`: the relative growth was inactive: 0.977.

With `Cc1ccccc1-c1ccc2c(c1)O[C@H](CN(C)C(=O)Nc1ccc(C(F)(F)F)cc1)[C@H](C)CN([C@@H](C)CO)S2(=O)=O`, the relative growth was inactive: 1.03.

For the compound `C[C@@H]1CN([C@@H](C)CO)C(=O)c2cccc(NC(=O)c3cnccn3)c2O[C@@H]1CN(C)S(C)(=O)=O`, the relative growth was inactive: 0.98.

Regarding `C[C@@H]1CCCCO[C@@H](CN(C)C(=O)c2ccccc2)[C@@H](C)CN([C@H](C)CO)C(=O)c2cc(NS(=O)(=O)c3ccccc3)ccc2O1`, the relative growth is inactive: 1.02.

`C[C@@H]1CCCCO[C@H](CN(C)C(=O)C2CCCCC2)[C@H](C)CN([C@@H](C)CO)C(=O)c2cc(NS(=O)(=O)c3ccc(F)cc3)ccc2O1`: the relative growth was inactive: 0.94.

Regarding `COc1ccc2c(c1)[C@@H](NCC=C(C)C)[C@H](C)[C@H]2c1ccccc1`, the relative growth is inactive: 1.

As to `CO[C@@H]1CN(C)C(=O)c2cc(NS(C)(=O)=O)ccc2OC[C@@H](C)N(S(=O)(=O)CC(F)(F)F)C[C@H]1C`, the relative growth is inactive: 0.976.

For `COc1ccc(S(=O)(=O)N(C)C[C@@H]2Oc3ccc(NC(=O)CCN4CCOCC4)cc3C(=O)N([C@H](C)CO)C[C@H]2C)cc1`, the relative growth was inactive: 0.99.

As for `C[C@H](C(=O)O)N1C(=O)c2ccccc2C1=O`, the relative growth was inactive: 1.01.

Consider `COc1ccc(NC(=O)Nc2ccc3c(c2)C(=O)N([C@H](C)CO)C[C@H](C)[C@H](CN(C)Cc2ccncc2)OCCCC[C@@H](C)O3)cc1`, for which the relative growth is inactive: 0.967.

On to `COCC#Cc1cnc2c(c1)C(=O)N([C@H](C)CO)C[C@H](C)[C@H](CN(C)C(C)=O)O2`, for which the relative growth was inactive: 1.01.

Turning to `C[C@H]1CN([C@@H](C)CO)S(=O)(=O)c2ccc(C#Cc3ccccc3F)cc2O[C@H]1CN(C)C(=O)Cc1ccncc1`, the relative growth was inactive: 1.01.

For the compound `C[C@@H]1CN([C@@H](C)CO)C(=O)c2cccc(NS(=O)(=O)c3cccs3)c2O[C@@H]1CN(C)S(=O)(=O)c1ccc(F)cc1`, the relative growth is inactive: 0.93.

Consider `COc1cccc(NC(=O)N[C@H]2CC[C@@H](CC(=O)N3CCOCC3)O[C@@H]2CO)c1`, for which the relative growth was inactive: 0.998.

In the case of `C[C@H](CO)N1C[C@H](C)[C@@H](CN(C)Cc2ccc(-c3ccccc3)cc2)Oc2ccc(NC(=O)CCC(F)(F)F)cc2C1=O`, the relative growth was inactive: 0.894.

Regarding `CNC1C(O)C(OC2C(N)CC(N)C(OC3OC(CN)=CCC3N)C2O)OCC1(C)O.O=S(=O)(O)O` (configuration not stated), the relative growth is inactive: 1.18.

`C[C@H]1CCCCO[C@@H](CN(C)C(=O)NC2CCCCC2)[C@@H](C)CN([C@@H](C)CO)C(=O)c2cc(NC(=O)c3ccccc3)ccc2O1`: the relative growth was inactive: 1.03.

For the compound `O=C1NC(=O)[C@]2(CCc3ccccc32)N1`, the relative growth is inactive: 1.01.

For the compound `C[C@H]1CCCCO[C@H](CN(C)Cc2ccccc2)[C@@H](C)CN([C@@H](C)CO)C(=O)c2cc(NC(=O)Cc3ccccc3)ccc2O1`, the relative growth is inactive: 0.943.

Regarding `CO[C@@H]1CN(C)C(=O)c2cc(NS(C)(=O)=O)ccc2OC[C@H](C)N(C(=O)C2CCCCC2)C[C@@H]1C`, the relative growth is inactive: 0.974.

With `CN1CCN(C(=O)C[C@H]2CC[C@@H]3[C@H](COC[C@H](O)CN3S(=O)(=O)c3cccc(Cl)c3)O2)CC1`, the relative growth was inactive: 0.969.

For `CC1CCC(NC(=O)N(CCCl)[NH2+][O-])CC1` (configuration not stated), the relative growth was inactive: 0.998.

For the compound `COc1cccc(NC(=O)N[C@@H]2CC[C@@H](CC(=O)N3CCOCC3)O[C@H]2CO)c1`, the relative growth was inactive: 1.01.

Regarding `O=C(C[C@H]1C=C[C@H](NC(=O)c2ccncc2)[C@H](CO)O1)NCc1ccncn1`, the relative growth is inactive: 0.978.

In the case of `COc1ccc(C#Cc2ccc3c(c2)O[C@H](CN(C)C(=O)CN2CCOCC2)[C@@H](C)CN([C@@H](C)CO)S3(=O)=O)cc1`, the relative growth is inactive: 0.986.

Take `CC(=O)OC[C@H]1O[C@@H](n2cc(C)c(=O)[nH]c2=O)C[C@@H]1OC(C)=O`: the relative growth is inactive: 1.03.

On to `CCOc1ccnc2c1c(=O)n(CC(N)=O)c(=O)n2C`, for which the relative growth is inactive: 1.

As for `Cc1ccc(S(=O)(=O)N(C)C[C@@H]2Oc3cc(C#Cc4ccncc4)ccc3S(=O)(=O)N([C@H](C)CO)C[C@H]2C)cc1`, the relative growth is inactive: 1.04.

With `C[C@H](CO)N1C[C@H](C)[C@@H](CN(C)C(=O)Nc2cccc3ccccc23)Oc2c(NC(=O)c3ccc(-c4nccs4)cc3)cccc2C1=O`, the relative growth is inactive: 1.06.

`Cc1ccc(S(=O)(=O)N(C)C[C@@H]2Oc3ccc(NC(=O)CCCN(C)C)cc3C(=O)N([C@H](C)CO)C[C@@H]2C)cc1`: the relative growth was inactive: 1.

For the compound `C[C@@H]1CN([C@@H](C)CO)S(=O)(=O)c2ccc(C#CC3CCCCC3)cc2O[C@@H]1CN(C)C(=O)Cc1ccncc1`, the relative growth was inactive: 0.995.

As for `Oc1ccc([C@H]2Oc3cc(O[C@@H]4OC[C@H](O)[C@@H](O)[C@@H]4O)cc(O)c3C[C@@H]2O)cc1O`, the relative growth is inactive: 0.996.

Regarding `COc1ccc2c3c([nH]c2c1)[C@@H](CO)N(C[C@]13CN(C1)S(=O)(=O)C)C(=O)C1CCOCC1`, the relative growth is inactive: 0.895.

In the case of `C[C@@H]1CN([C@H](C)CO)C(=O)c2cc(NC(=O)CCC(F)(F)F)ccc2O[C@@H](C)CCCCO[C@H]1CN(C)C(=O)Nc1ccccc1`, the relative growth is inactive: 1.02.

With `COc1cc(O)ccc1C(C)=O`, the relative growth was inactive: 1.03.

For `C[C@@H]1CCCCO[C@@H](CN(C)Cc2ccc(C(F)(F)F)cc2)[C@@H](C)CN([C@H](C)CO)C(=O)c2cc(NC(=O)NC3CCCCC3)ccc2O1`, the relative growth is inactive: 0.974.

As to `Cc1ccc(S(=O)(=O)Nc2ccc3c(c2)C(=O)N([C@H](C)CO)C[C@@H](C)[C@@H](CN(C)C(=O)NC(C)C)O3)cc1`, the relative growth was inactive: 0.975.

Regarding `COc1ccc(S(=O)(=O)Nc2cccc3c2O[C@H](CN(C)S(=O)(=O)c2ccc(OC)cc2)[C@H](C)CN([C@@H](C)CO)C3=O)cc1`, the relative growth is inactive: 1.04.

Turning to `C[C@H](CO)N1C[C@H](C)[C@@H](CN(C)Cc2ccc(Oc3ccccc3)cc2)Oc2ccc(NS(=O)(=O)c3ccc(F)cc3)cc2CC1=O`, the relative growth is inactive: 0.948.

For `CCOC(=O)Cc1n[nH]c(=O)[nH]c1=O`, the relative growth is inactive: 1.01.

`COc1cccc(C#Cc2ccc([C@@H]3[C@@H](CO)N4C(=O)CN(S(=O)(=O)c5ccccc5C)C[C@@H]34)cc2)c1`: the relative growth was inactive: 1.03.

Take `C/C=C/c1cnc2c(c1)C(=O)N([C@H](C)CO)C[C@H](C)[C@H](CN(C)S(=O)(=O)c1ccc(OC)cc1)O2`: the relative growth was inactive: 0.975.

Regarding `C[C@@H]1CN([C@H](C)CO)C(=O)c2cccc(NC(=O)C3CCCCC3)c2O[C@@H]1CN(C)Cc1ccc(C(=O)Nc2ccccc2N)cc1`, the relative growth is inactive: 0.988.

Turning to `Cc1noc(C)c1NC(=O)Nc1ccc2c(c1)CC(=O)N([C@@H](C)CO)C[C@@H](C)[C@@H](CN(C)S(=O)(=O)c1cn(C)cn1)O2`, the relative growth is inactive: 0.84.

For the compound `CN1CCN(C)[C@@H](CO)C1`, the relative growth was inactive: 0.986.

`Cc1noc(C)c1S(=O)(=O)N(C)C[C@@H]1Oc2ccc(NS(=O)(=O)c3cn(C)cn3)cc2CC(=O)N([C@H](C)CO)C[C@@H]1C`: the relative growth was inactive: 0.99.

As to `COC(=O)c1c2oc(c1C(=O)OC)C(=O)N[C@@H](Cc1ccccc1)Cn1cc(nn1)[C@@H](Cc1ccccc1)NC(=O)N[C@H](COC(=O)NCCCCCC(=O)NO)CC2`, the relative growth is inactive: 1.02.

As for `CO[C@@H]1CN(C)C(=O)c2cc(NC(=O)Nc3cccc(Cl)c3)ccc2OC[C@@H](C)N(C(=O)Nc2c(C)noc2C)C[C@@H]1C`, the relative growth was inactive: 1.

Consider `COc1ccc(S(=O)(=O)N(C)C[C@@H]2Oc3c(NS(C)(=O)=O)cccc3C(=O)N([C@@H](C)CO)C[C@@H]2C)cc1`, for which the relative growth is inactive: 0.996.

Consider `O=C(CCc1ccc(O)cc1)c1c(O)c([C@@H]2O[C@H](CO)[C@@H](O)[C@H](O)[C@H]2O)c(O)c([C@@H]2O[C@H](CO)[C@@H](O)[C@H](O)[C@H]2O)c1O`, for which the relative growth is inactive: 1.

Consider `Cc1noc(C)c1NC(=O)Nc1ccc2c(c1)C(=O)N([C@H](C)CO)C[C@H](C)[C@@H](CN(C)CC1CC1)OCCCC[C@H](C)O2`, for which the relative growth is inactive: 0.994.

On to `Cc1noc(C)c1S(=O)(=O)Nc1ccc2c(c1)CC(=O)N([C@@H](C)CO)C[C@@H](C)[C@H](CN(C)Cc1ccc(C(=O)O)cc1)O2`, for which the relative growth is inactive: 1.

In the case of `C[C@H](O)C#Cc1ccc2c(c1)O[C@@H](CN(C)C(=O)Nc1ccccc1)[C@@H](C)CN([C@@H](C)CO)S2(=O)=O`, the relative growth was inactive: 0.984.

Take `COc1cccc(CN(C)C[C@H]2OCc3ccccc3-c3c(n(C)c4ccccc34)C(=O)N([C@@H](C)CO)C[C@@H]2C)c1`: the relative growth was inactive: 1.03.

On to `Cn1ccnc1CN1CC[C@]2(COCCN(S(C)(=O)=O)C2)C1`, for which the relative growth was inactive: 1.03.

Turning to `Cc1ccc(S(=O)(=O)N2C[C@H](O)COC[C@H]3O[C@H](CC(=O)NCc4ccc5c(c4)OCO5)CC[C@@H]32)cc1`, the relative growth was inactive: 1.

In the case of `CCOc1ccc(Nc2nc3c(=O)nc[nH]c3n2[C@H]2O[C@@H](CO)[C@@H](O)[C@@H]2O)cc1`, the relative growth was inactive: 1.04.

Regarding `N[C@@H](Cc1cc(I)c(Oc2ccc(O)c(I)c2)c(I)c1)C(=O)O`, the relative growth is inactive: 1.

Consider `COc1ccc(CN(C)C[C@H]2OCCCC[C@H](C)Oc3ccc(NC(=O)Nc4cccc5ccccc45)cc3C(=O)N([C@H](C)CO)C[C@@H]2C)cc1`, for which the relative growth was inactive: 1.04.

As to `COC1C(O)C(O)C(O)C(O)C1O` (configuration not stated), the relative growth was inactive: 0.97.

Take `COc1ccc([C@@H]2CC(=O)c3c(O)cc(O[C@@H]4O[C@H](CO[C@@H]5O[C@@H](C)[C@H](O)[C@@H](O)[C@H]5O)[C@@H](O[C@H]5O[C@H](CO)[C@@H](O)[C@H](O)[C@H]5O)[C@H](O)[C@H]4O)cc3O2)cc1O`: the relative growth was inactive: 0.992.
